In the supplement of paper PMC9446081:
In all, about 39,000 compounds went through this assay and about 220 (0.56%) showed activity. Some of the results follow.

tested on: Escherichia coli K-12 BW25113; test: relative growth (OD600 normalised to plate interquartile mean) (fraction); higher = less growth inhibition, active = 0.2 or less; details: 50 µM; LB; incubation time: overnight (16-24 h)
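Also: static incubation at 37 °C against the wild-type strain, values averaged over two biological replicates.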

Structure (SMILES)	relative growth
C[C@@H]1CN([C@@H](C)CO)C(=O)c2cc(C#CCN(C)C)cnc2O[C@H]1CN(C)C(=O)c1cnccn1	inactive: 0.972
C[C@@H]1CN([C@H](C)CO)C(=O)c2cc(NC(=O)c3ccncc3)ccc2O[C@@H]1CN(C)S(=O)(=O)c1ccccc1	inactive: 0.959
CC(C)NC(=O)Nc1cccc2c1O[C@H](CN(C)S(=O)(=O)c1ccc(Cl)cc1)[C@H](C)CN([C@H](C)CO)C2=O	inactive: 0.968
COc1ccc(CN(C)C[C@@H]2OCCCC[C@@H](C)Oc3ccc(NC(=O)CCC(F)(F)F)cc3C(=O)N([C@@H](C)CO)C[C@H]2C)cc1	inactive: 0.977
COc1ccc(NC(=O)N(C)C[C@@H]2OCCCC[C@H](C)Oc3ccc(NC(=O)NC(C)C)cc3C(=O)N([C@@H](C)CO)C[C@@H]2C)cc1	inactive: 0.956
C[C@@H]1CN([C@@H](C)CO)C(=O)c2cccc(NC(=O)Nc3ccc4c(c3)OCO4)c2O[C@H]1CN(C)Cc1ccc(Cl)c(Cl)c1	inactive: 1.02
Cl.Cl.NCCNCCNCCN	inactive: 1.12
C[C@H](CO)N1C[C@H](C)[C@H](CN(C)C(=O)Nc2cccc3ccccc23)Oc2ccc(NC(=O)Nc3ccccc3)cc2C1=O	inactive: 1.04
CC(C)NC(=O)N(C)C[C@H]1Oc2cc(C#Cc3ccc(F)cc3)ccc2S(=O)(=O)N([C@H](C)CO)C[C@@H]1C	inactive: 1.07
C[C@H]1CN([C@@H](C)CO)C(=O)c2cccc(NC(=O)c3ccc(-c4nccs4)cc3)c2O[C@@H]1CN(C)Cc1ccc(C(=O)O)cc1	inactive: 1.01
COc1ccc(NC(=O)Nc2ccc3c(c2)C(=O)N([C@@H](C)CO)C[C@@H](C)[C@@H](CN(C)Cc2ccncc2)OCCCC[C@H](C)O3)cc1	inactive: 0.951
CCS(=O)(=O)Nc1ccc2c(c1)CC(=O)N2	inactive: 1.01
COc1ccc(S(=O)(=O)Nc2ccc3c(c2)C(=O)N([C@@H](C)CO)C[C@H](C)[C@@H](CN(C)S(C)(=O)=O)OCCCC[C@@H](C)O3)cc1	inactive: 0.986
COc1ccc(NC(=O)N(C)C[C@@H]2Oc3ccc(NS(=O)(=O)c4cn(C)cn4)cc3C(=O)N([C@H](C)CO)C[C@@H]2C)cc1	inactive: 0.96
Cc1noc(C)c1S(=O)(=O)N(C)C[C@H]1Oc2c(NC(=O)C3CCCCC3)cccc2C(=O)N([C@@H](C)CO)C[C@H]1C	inactive: 1.01
C[C@H]1CN([C@@H](C)CO)C(=O)c2cc(NC(=O)Nc3ccc(F)cc3)ccc2O[C@H]1CN(C)Cc1ccc(Cl)c(Cl)c1	inactive: 1.03
N[C@@H](CO)c1ccccc1	inactive: 1.04
CC1C(NC(=O)C(=NOC(C)(C)C(=O)O)c2csc(N)n2)C(=O)N1S(=O)(=O)O (configuration not stated)	active: 0.0499
COCCOC(=O)N1C(=O)[C@@]2(c3cc(C#CC4=CCCCC4)ccc31)[C@H](c1ccccc1OCCO)N1[C@H](c3ccccc3)[C@H](c3ccccc3)OC(=O)[C@H]1[C@@H]2C(=O)NC[C@H](O)c1ccccc1	inactive: 1.08

Structure (SMILES)	relative growth
C[C@@H]1CCCCO[C@H](CN(C)C(=O)Cc2ccccc2)[C@@H](C)CN([C@@H](C)CO)C(=O)c2cc(NS(=O)(=O)c3ccc(Cl)cc3)ccc2O1	inactive: 1.01
O=C(C[C@@H]1CC[C@@H]2[C@H](COC[C@H](O)CN2S(=O)(=O)c2ccc(F)cc2)O1)NCc1ccc(Cl)c(Cl)c1	inactive: 0.998
C[C@@H]1CN([C@@H](C)CO)C(=O)c2cccc(NS(C)(=O)=O)c2O[C@@H]1CN(C)S(=O)(=O)c1ccc(F)cc1	inactive: 1
COc1cccc(C(=O)Nc2ccc3c(c2)C(=O)N(C)[C@@H]2CC[C@@H](CC(=O)NCCCN4CCOCC4)O[C@@H]2CO3)c1	inactive: 1.01
C[C@H](CO)N1C[C@H](C)[C@H](CN(C)C(=O)Nc2ccccc2F)OCCCC[C@H](C)Oc2ccc(NC(=O)C3CCCCC3)cc2C1=O	inactive: 1
C=C1C(C2(C)C=CC(=O)C(C)(C)C2CC(=O)OC)CCC2(C)C(c3ccoc3)OC(=O)C3OC132 (configuration not stated)	inactive: 1.07
C[C@@H]1CCCCO[C@H](CN(C)Cc2ccc(C(F)(F)F)cc2)[C@H](C)CN([C@H](C)CO)C(=O)c2cc(NC(=O)Nc3ccccc3)ccc2O1	inactive: 1.04
Cc1noc(C)c1NC(=O)Nc1ccc2c(c1)C(=O)N([C@@H](C)CO)C[C@H](C)[C@H](CN(C)S(=O)(=O)c1ccc(F)cc1)OCCCC[C@H](C)O2	inactive: 1
Cc1noc(C)c1NC(=O)N(C)C[C@H]1Oc2ccc(NC(=O)c3ccncc3)cc2CC(=O)N([C@@H](C)CO)C[C@H]1C	inactive: 0.971
C[N+](C)(C)CCCCNC(=O)[C@H]1C[C@H]2C(=O)NCC(=O)N2[C@H]1c1ccc(O)cc1	inactive: 1.02
C[C@H](CO)N1C[C@H](C)[C@H](CN(C)S(=O)(=O)c2ccc(F)cc2)Oc2ncc(C#CC(C)(C)O)cc2C1=O	inactive: 0.891
C[C@@H]1CCCCO[C@H](CN(C)Cc2ccc(Cl)c(Cl)c2)[C@H](C)CN([C@@H](C)CO)C(=O)c2cc(NC(=O)Cc3ccccc3)ccc2O1	inactive: 1.02
COc1ccc(NC(=O)Nc2ccc3c(c2)CC(=O)N([C@H](C)CO)C[C@H](C)[C@H](CN(C)Cc2ccc(Cl)c(Cl)c2)O3)cc1	inactive: 1.04
C[C@@H]1CN([C@H](C)CO)S(=O)(=O)c2ccc(C#C[C@@H](C)O)cc2O[C@H]1CN(C)C	inactive: 0.973
Cc1c(C)n2c3c(=O)n(C)c(=O)n(C)c3nc2n1CCN1CCOCC1	inactive: 0.99
COc1ccc(CN(C)C[C@H]2Oc3ccc(NS(=O)(=O)c4cn(C)cn4)cc3CC(=O)N([C@@H](C)CO)C[C@H]2C)cc1	inactive: 0.987
C[C@@H]1CCCCO[C@@H](CN(C)S(=O)(=O)c2cn(C)cn2)[C@@H](C)CN([C@H](C)CO)C(=O)c2cc(NS(=O)(=O)c3ccccc3)ccc2O1	inactive: 0.998
Cc1ccc(S(=O)(=O)Nc2ccc3c(c2)C(=O)N([C@@H](C)CO)C[C@@H](C)[C@H](CN(C)Cc2ccncc2)OCCCC[C@@H](C)O3)cc1	inactive: 0.99
